# According to PMC12040169 (PLOS Biology, 2025):
# Some of the results follow.
# Tested on: T1, C. trachomatis L2/434/Bu expressing GFP (CTL2-GFP)
# T1 construct: L2/434/Bu GFP intracellular growth in HeLa cells
# Parameters: species or system HeLa; C. trachomatis total inclusion area by high-content imaging, normalised to DMSO
# Conditions: total inclusion area; 28.5 h, 10 µM; inhibitor
# Method in brief: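 After bulk GFP and resorufin fluorescence reads, cells were fixed, stained with Hoechst and imaged by high-content microscopy. Inclusion area and number (GFP) stood in for chlamydial growth, nuclei count (Hoechst) for host cell viability. MICs were derived as for the bulk readout.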
row,Structure (SMILES),% of control remaining
1,CC(C)c1cc(C(=O)N2CCN(C)C(=O)C2Cc2ccccc2-c2ccc(F)cc2)[nH]n1 (stereo not drawn) [CBK285833],120.074
2,Cc1ccc(C(=O)NCc2ccc3c(c2)CCO3)c(N2CCOCC2)n1 [CBK106202],79.9929
3,Nc1nnc(SC/C=C/CSc2nnc(N)s2)s1 [CBK263092],97.8023
4,O=S(=O)(NCCCn1ccnc1)c1cc(Cl)ccc1Cl [CBK261767],101.679
5,Cc1cc(C)n(CCCC(=O)N2C[C@H]3CCc4c[nH]nc4[C@H]3C2)n1 [CBK284573],62.7867
6,O=C(Cn1c(=O)n(Cc2cccs2)c2ncccc21)N1CCCC1 [CBK283894],65.9331
7,COCCN1C(=O)C2(CC(=O)N(CCc3scnc3C)C2=O)c2cc(Cl)ccc21 (stereo not drawn) [CBK075321],89.2587
8,O=[N+]([O-])c1ccc(-c2ccc(/C=N/Nc3nnc4c(n3)[nH]c3ccccc34)o2)cc1 [CBK262029],98.3959
9,C#CCN(C1CCc2ccccc21)S(=O)(=O)c1cc(C(N)=O)n(C)c1 (stereo not drawn) [CBK304287],24.2317
10,CC(C)[C@@H](CO)Nc1cncc(-c2cccnc2)n1 [CBK065467],73.821
11,O=C(c1ccccc1)N1C[C@@H](c2ccsc2)[C@@H]2CN(Cc3ccccc3)CC[C@@H]21 [CBK285602],84.6681
12,COc1cccc(C(=O)COC(=O)c2ccc3c(c2)C(=O)N(c2ccc(C(C)=O)cc2)C3=O)c1 [CBK264872],105.472
13,O=C(CCCn1ccnc1)NC(Cc1cccs1)c1nccs1 (stereo not drawn) [CBK285094],99.0552
14,O=S(=O)(Cc1ccc(Cl)cc1)NCCCn1ccnc1 [CBK268372],80.1557
15,COc1ccc(-c2cc(C(=O)NCC(F)(F)F)cnc2-c2ccc(Cl)cc2)cn1 [CBK036698],88.0038
16,COc1ccc(C(=O)N2CCC3(CCN(Cc4ccc(OC(F)(F)F)cc4)C3)C2)cc1OC (stereo not drawn) [CBK132148],76.8469
17,CC(C)(C)OC(=O)N1CCC[C@]2(CCC(=O)N2)[C@H]1c1cccc(F)c1 [CBK283463],129.766
18,Cc1nc(C2CCCN(C(=O)c3cnn(C)c3)C2)c2sccn12 (stereo not drawn) [CBK285236],110.336
19,Cc1ccc(C(=O)Nc2ccc(N3CCCCC3)c(F)c2)c(=O)n1C [CBK281390],108.826
20,CC(=O)c1ccc(NC(=O)c2cccc(S(=O)(=O)N3CCCCC3)c2)cc1 [CBK263246],96.7735
21,O=C(O)Cn1c2ccc(Br)cc2c2nc3ccccc3nc21 [CBK266416],157.235
